Measurements published in PubChem BioAssay AID504339 (National Center for Advancing Translational Sciences (NCATS), 2011).
In all, about 390,000 compounds went through this assay and about 17,000 (4.4%) were called active. The inconclusive results got no clear call from the source; some entries with a clear call stand among them for comparison. The call rests on the fitted dose curve; in most records, active means well fitted inhibition curve with a large enough effect; inconclusive means small, poorly fitted or top-dose-only effect; inactive means no such curve, though single readings can be large or run the other way. Where the call is inconclusive, the potency comes from a doubtful curve fit.

Molecular target: Lysine-specific demethylase 4A (Homo sapiens) (UniProt O75164)
Sequence of UniProt O75164 (O75164 whole entry, looked up, the tested form may be a part): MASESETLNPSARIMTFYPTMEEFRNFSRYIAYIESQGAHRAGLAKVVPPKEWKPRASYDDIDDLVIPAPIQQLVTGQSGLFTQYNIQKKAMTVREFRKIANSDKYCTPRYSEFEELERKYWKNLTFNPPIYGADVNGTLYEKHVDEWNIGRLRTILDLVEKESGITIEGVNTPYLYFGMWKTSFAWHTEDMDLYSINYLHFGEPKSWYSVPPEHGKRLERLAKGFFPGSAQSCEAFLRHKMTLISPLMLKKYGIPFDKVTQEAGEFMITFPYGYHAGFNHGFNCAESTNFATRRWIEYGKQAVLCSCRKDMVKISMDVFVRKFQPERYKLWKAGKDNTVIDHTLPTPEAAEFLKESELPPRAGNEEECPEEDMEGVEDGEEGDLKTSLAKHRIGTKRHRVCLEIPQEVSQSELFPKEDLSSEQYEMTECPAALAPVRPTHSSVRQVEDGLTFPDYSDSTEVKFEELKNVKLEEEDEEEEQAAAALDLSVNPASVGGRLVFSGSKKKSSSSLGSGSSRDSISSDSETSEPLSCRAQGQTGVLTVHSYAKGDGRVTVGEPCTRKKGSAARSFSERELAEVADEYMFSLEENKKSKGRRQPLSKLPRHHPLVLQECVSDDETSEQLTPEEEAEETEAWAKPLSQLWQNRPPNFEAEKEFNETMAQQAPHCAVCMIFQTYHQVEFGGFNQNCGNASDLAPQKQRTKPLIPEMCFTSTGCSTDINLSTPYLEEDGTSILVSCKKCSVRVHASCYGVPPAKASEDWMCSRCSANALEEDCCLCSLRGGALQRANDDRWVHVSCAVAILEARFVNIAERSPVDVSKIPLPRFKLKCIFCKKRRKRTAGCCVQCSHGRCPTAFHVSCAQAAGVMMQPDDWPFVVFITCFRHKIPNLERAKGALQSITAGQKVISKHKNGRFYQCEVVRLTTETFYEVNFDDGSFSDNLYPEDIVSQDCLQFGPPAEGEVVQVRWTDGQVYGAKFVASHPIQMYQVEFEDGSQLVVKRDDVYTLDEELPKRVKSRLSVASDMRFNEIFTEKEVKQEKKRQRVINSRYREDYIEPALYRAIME
Assay: qHTS Assay for Inhibitors of JMJD2A-Tudor Domain; further: nearly all actives have a fitted effect of over 50% in size
Conditions: AlphaScreen JMJD2A-Tudor / H3K4me3 peptide binding; activity change, negative = inhibition: at 114 µM (top of the series)
On the % scale 0 is the no-effect control and ±100 the full control effect; potency means the concentration at half of the fitted maximal effect; tags describe the fitted curve by direction and shape.

Potency, active:
C=CCNc1nc(C(=O)OCC(=O)c2ccc(Cl)cc2)cs1 50.1 µM
O=C(Nc1nc(-c2ccccn2)cs1)Nc1ccc(F)cc1F 39.8 µM
CC(C)c1ccc(/C=N/n2c(COc3ccccc3)n[nH]c2=S)cc1 35.5 µM
CC1CC(C)CN(CCCSc2ccccc2)C1 (stereo unspecified) 28.2 µM
CCC(COC(=O)c1ccccc1)Oc1cc(NCc2ccccc2)c2ncn(C(C)C)c2c1 (stereo unspecified) 44.7 µM
Cc1ccc(Cl)cc1N1CCN(C(=O)CSc2nnc3n2C(C)(C)Cc2ccccc2-3)CC1 89.1 µM
O=C(Nc1cccc(Cl)c1)c1c(NC(=O)C(F)(F)F)sc2c1CCCC2 79.4 µM
Cc1ccnc(NC(c2ccccc2)c2ccc3cccnc3c2O)c1 (stereo unspecified) 14.1 µM

Potency, inactive:
Cc1cccc(N2CCN(S(=O)(=O)c3ccc4c(c3)CCCN4C(=O)C3CCC3)CC2)c1C

Potency, inconclusive:
Nc1cc(C(F)(F)F)ccc1NCCc1ccccn1 12.6 µM [inhibitor, full curve]
Cc1cc(C)cc(NC(=O)CSc2nccn2-c2ccccc2)c1 39.8 µM [inhibitor, partial curve]
Cc1cc2nc(NCCCO)n(CC(=O)c3cc(C(C)(C)C)c(O)c(C(C)(C)C)c3)c2cc1C 44.7 µM [inhibitor, partial curve]
O=S(=O)(NCc1ccccn1)c1ccccn1 100 µM [inhibitor, single point]
CCN(Cc1ccccc1)C(=O)c1ccc(CNS(=O)(=O)c2ccc(C)cc2)cc1 100 µM [inhibitor, single point]
Cc1ccc2c(c1)nnn2C1CCN(S(=O)(=O)c2ccc(C(=O)N(C)C3CCCCC3)cc2)CC1 35.5 µM [inhibitor, partial curve]
COc1ccc(N2CCN(CCCNC(=O)C3COc4ccc(OC)cc4C3)CC2)cc1 (stereo unspecified) 44.7 µM [inhibitor, partial curve]
O=C(CCN1C(=O)c2ccccc2C1=O)NC1=NCCS1 89.1 µM [inhibitor, single point]
Cc1ccc2c(c1)C1CN(C)CCC1N2C(=O)c1cccc(S(=O)(=O)N2CC(C)CC(C)C2)c1 (stereo unspecified) 100 µM [inhibitor, single point]
Cc1ccc(CNC(=O)CS(=O)Cc2nc(-c3ccccc3F)oc2C)cc1 (stereo unspecified) 39.8 µM [inhibitor, partial curve]
COc1ccccc1/C=N/Nc1nccnc1Cl 89.1 µM [inhibitor, single point]
O=C(C[n+]1cc(-c2ccccc2)n2c1CCC2)Nc1nc(-c2ccc(F)cc2)cs1 79.4 µM [inhibitor, single point]
Cc1[nH]n(-c2ccccc2)c(=O)c1C(C[N+](=O)[O-])c1ccc(Cl)cc1 (stereo unspecified) 56.2 µM [inhibitor, partial curve]
COc1ccccc1NC(=O)/C(=N/OCc1ccc(C#N)cc1)C(C)=O 44.7 µM [inhibitor, partial curve]
COc1ccc(OCCNC(=S)Nc2cccc3ccccc23)cc1 39.8 µM [inhibitor, partial curve]
COc1ccccc1C(=O)Nc1cc2c(cc1N1CCCCC1)n(C)c(=O)n2C 2.82 µM [inhibitor, full curve]
Cn1c(=O)c2c(nc(SCC(=O)NCc3ccc4c(c3)OCO4)n2Cc2ccc(Cl)cc2)n(C)c1=O 79.4 µM [inhibitor, partial curve]
CCCCn1c(/C=N/Nc2nc3ccccc3[nH]2)nc2ccccc21 22.4 µM [inhibitor, partial curve]
COc1cc2c3c(c1)/C(=C1/SC(=S)NC1=O)C(=O)N3C(C)(C)C=C2C 25.1 µM [inhibitor, single point]
Cc1cccc(C)c1-n1ncc(C(=O)Nc2ccc3c(c2)OCCO3)c1C1CCN(C(=O)OC(C)(C)C)CC1 25.1 µM [inhibitor, full curve]
CN(C)CC/C=C1\c2ccccc2Sc2cc(F)c(Cl)cc21 50.1 µM [inhibitor, partial curve]
CCOC(=O)N1CCC(N2CCN(S(=O)(=O)c3ccc(C)cc3)CC2)CC1 0.631 µM [inhibitor, full curve, poor fit]
CC1(O)CC(c2ccc(Cl)cc2)=NN1C(=O)c1ccc(Cl)cc1 (stereo unspecified) 56.2 µM [inhibitor, partial curve]
COc1cc(/C=C/C(O)=C/C(=O)/C=C/c2ccc(O)cc2)ccc1O 70.8 µM [inhibitor, single point]
Cn1cc(Br)c(C(=O)n2cc(Br)cn2)n1 17.8 µM [inhibitor, single point]
COc1cccc(NC(=O)Nc2cc(-c3cn4cccnc4n3)ccc2C)c1 31.6 µM [inhibitor, full curve, poor fit]
COC(=O)C1=C(C)N(Cc2ccccc2)C(=NCc2cc(OC)c(OC)c(OC)c2)N[C@H]1c1ccc(Br)cc1 11.2 µM [inhibitor, full curve]
Cn1c(=O)n(C)c2cc(NS(=O)(=O)c3ccccc3)c(NCc3ccccc3)cc21 56.2 µM [inhibitor, partial curve]
Cc1ccc(-c2cn(S(=O)(=O)c3cccc4nsnc34)nc2N)cc1 39.8 µM [inhibitor, partial curve]
CC(=O)c1cccc(N2C(=NC(=O)COc3ccccc3)SC3CS(=O)(=O)CC32)c1 (stereo unspecified) 14.1 µM [inhibitor, full curve]
CCOC(=O)C1=C(CSc2nc(C)ccc2C#N)OC(N)=C(C#N)C1c1cccc(OC)c1OC (stereo unspecified) 50.1 µM [inhibitor, partial curve]
CCN(CC)c1ccc(NC(=O)C(Cc2ccccc2)NS(=O)(=O)c2ccc(Br)s2)c(C)c1 (stereo unspecified) 12.6 µM [inhibitor, full curve]
CC(C)N1C/C(=C/c2ccsc2)C(=O)/C(=C/c2ccsc2)C1 20 µM [inhibitor, full curve]
COc1ccc2cc3c(N)nn(C(=O)Cc4c[nH]c5ccccc45)c3nc2c1 39.8 µM [inhibitor, partial curve]
N#CC1CC(c2ccccc2)=NN1c1ccccc1[N+](=O)[O-] (stereo unspecified) 35.5 µM [inhibitor, partial curve]
c1ccc(C2NCCn3cccc32)cc1 (stereo unspecified) 89.1 µM [inhibitor, single point]
O=C1CCCN1CN1CCCCC1 0.794 µM [inhibitor, full curve, poor fit]
Cc1ccc(-c2nn(-c3ccccc3)cc2C(N)=O)o1 44.7 µM [inhibitor, partial curve]
COc1ccc([C@H]2CC(=O)C=C(c3ccc4cc[nH]c4c3)C2)cc1 79.4 µM [inhibitor, single point]
CC(CCc1ccccc1)NC(=O)CN1CCc2ccccc2C1 (stereo unspecified) 14.1 µM [inhibitor, partial curve]
O=C(CCCOc1ccc(Cl)cc1Cl)NNC(=O)c1ccc(NC(=O)c2ccccc2)cc1 39.8 µM [inhibitor, single point]
Cc1cc(C)c(C)c(S(=O)(=O)NNC(=O)c2cccc(S(=O)(=O)N3CCOCC3)c2)c1C 10 µM [inhibitor, full curve]

Activity change, negative = inhibition, inactive:
COC(=O)Nc1sc2c(c1C(=O)NC1CC1)CCCCCC2 -15.1%
Cc1ccc(CNC(=O)c2ccc(CS(=O)Cc3ccccc3Cl)o2)cc1 (stereo unspecified) -7.59%
COc1ccc(S(=O)(=O)c2cn(C)c3cc(N4CCCCC4)c(F)cc3c2=O)cc1 -13.2%
CN1/C(=C\C=Nc2cc(S(=O)(=O)N3CCOCC3)ccc2N2CCOCC2)C(C)(C)c2ccccc21 -19.9%
NCCSC1CC(=O)N(c2ccc(F)cc2)C1=O (stereo unspecified) -15.9%
CNC(=O)C1(C(F)(F)F)C/C(=C\Cc2ccccc2)CCCO1 (stereo unspecified) -9.66%
COC(=O)c1ccc(NC(=O)COc2ccc(S(=O)(=O)N3CCCCC3)cc2)cc1 -14.1%
CCc1cc2c(cc3c(=O)n(CC(=O)N4CCN(c5cc(Cl)ccc5C)CC4)ncn32)s1 4.73%
CC(Sc1nnc(-c2cccs2)n1N)C(=O)NCC1CCCO1 (stereo unspecified) 2.04%
COC(=O)C(C)Sc1ncnc2c1nnn2-c1ccc(F)cc1 (stereo unspecified) 15.6%
CN1CCC(N(C)S(=O)(=O)c2ccc(NC(=O)COc3cccc(Cl)c3)cc2)CC1 -22.3%
O=C(Nc1nccs1)NC(C(F)(F)F)C(F)(F)F -12.4%
CC1CN(CC(=O)Nc2cc(S(=O)(=O)N3CCCC3)ccc2Cl)CC(C)O1 (stereo unspecified) -6.58%
COCCCNC(=S)N1CCN(C(c2ccccc2)c2ccccc2)CC1 -25.5%
COc1ccc(-c2cc(-c3ccccc3)nc(SCC(=O)Nc3ncc(C)s3)c2C#N)cc1 -19.5%
COc1ccc(Br)cc1/C=N/NC(=O)CN1CCN(Cc2ccccc2)CC1 -17.2%
CCC(CO)[n+]1c(C)cc(/C=C2\Sc3ccccc3N2Cc2ccccc2)cc1C (stereo unspecified) -2.74%
CCOc1ccccc1Nc1nc(N)nc(CSc2nncn2C)n1 -1.32%
Cc1ccc(CCNC(=O)C2=CCN(S(=O)(=O)c3ccccc3)CC2)cc1 -3.82%
O=C(CCC(=O)Nc1ccc(Cl)cc1Cl)N/N=C/c1ccc([N+](=O)[O-])o1 -19.7%
